Experimental findings from PMC9724675 are described below.

Chains of the proteins cited; added tags and fusions are not shown. Lines headed by an entry give the natural chain unless they say otherwise; changes in a name come on top. A line that says so, or that is headed by a name, gives the form on record, which may keep a tag or linker.
UniProt O95069: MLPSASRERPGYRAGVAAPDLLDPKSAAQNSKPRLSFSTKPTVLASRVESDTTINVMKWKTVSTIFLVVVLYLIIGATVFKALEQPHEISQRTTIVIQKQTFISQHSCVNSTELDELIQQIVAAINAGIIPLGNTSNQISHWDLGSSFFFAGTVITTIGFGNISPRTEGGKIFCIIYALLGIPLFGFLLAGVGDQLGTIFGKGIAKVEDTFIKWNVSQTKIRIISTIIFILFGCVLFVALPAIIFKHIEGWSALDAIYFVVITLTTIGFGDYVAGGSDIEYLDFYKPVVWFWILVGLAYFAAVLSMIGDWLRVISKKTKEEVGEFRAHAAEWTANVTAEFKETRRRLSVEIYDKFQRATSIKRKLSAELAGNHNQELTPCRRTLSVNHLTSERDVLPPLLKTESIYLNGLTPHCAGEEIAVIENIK
VN-TREK-1c and VC-TREK-1c (human TREK-1c fused to a half of Venus) (O95069-3, form named): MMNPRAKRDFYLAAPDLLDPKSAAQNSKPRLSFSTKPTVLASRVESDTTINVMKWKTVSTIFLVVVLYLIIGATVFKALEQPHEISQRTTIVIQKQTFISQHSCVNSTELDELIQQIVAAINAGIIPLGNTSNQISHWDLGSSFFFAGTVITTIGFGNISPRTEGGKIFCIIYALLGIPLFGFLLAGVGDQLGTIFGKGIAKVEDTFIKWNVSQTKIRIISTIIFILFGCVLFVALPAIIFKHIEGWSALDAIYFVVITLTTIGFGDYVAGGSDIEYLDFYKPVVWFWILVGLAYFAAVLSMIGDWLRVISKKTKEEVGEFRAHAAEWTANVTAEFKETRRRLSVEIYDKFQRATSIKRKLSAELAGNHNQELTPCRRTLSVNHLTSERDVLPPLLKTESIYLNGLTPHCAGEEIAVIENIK
UniProt P24588: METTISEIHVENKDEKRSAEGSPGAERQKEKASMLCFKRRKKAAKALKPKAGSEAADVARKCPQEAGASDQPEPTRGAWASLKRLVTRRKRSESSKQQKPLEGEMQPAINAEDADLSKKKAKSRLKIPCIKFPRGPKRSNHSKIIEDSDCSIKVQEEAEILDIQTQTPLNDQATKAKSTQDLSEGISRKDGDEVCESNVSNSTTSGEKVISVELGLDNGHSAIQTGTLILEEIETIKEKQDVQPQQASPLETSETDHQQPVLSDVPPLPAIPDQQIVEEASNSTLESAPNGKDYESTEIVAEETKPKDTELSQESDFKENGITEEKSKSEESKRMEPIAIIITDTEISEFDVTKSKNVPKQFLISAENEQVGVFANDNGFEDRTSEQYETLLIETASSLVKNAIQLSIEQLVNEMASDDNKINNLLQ

Results are given in words; binding and its absence hold for the method and conditions named. Binding seen in cells or lysates may run through a third protein. Some results given as binding are weak or reduced against the parent protein; the word gives no strength. For part of these data: Tags and fused reporters may be left off the sequences shown.

For test [1], the target named is YFP-tagged TREK-1 (human) (UniProt O95069). The test is described as follows: co-IP; HEK293 lysates, immunoprecipitation of YFP-tagged TREK-1 (anti-GFP or TREK-1 antibodies), western blot; with or without overexpressed POPDC1-Myc or AKAP79; with or without ISO (10 μM, 10 min). Background: A western blot detects proteins with antibodies after separation by electrophoresis.

For test [2], the target named is POPDC1-Myc (Popeye domain-containing protein 1, Myc-tagged) (mouse) (UniProt Q9ES83). The test is described as follows: co-IP; HEK293 lysates, immunoprecipitation of Myc-tagged POPDC with anti-MYC, western blot (anti-FLAG, anti-GFP).
In test [3] the target is VN-TREK-1c and VC-TREK-1c (human TREK-1c fused to a half of Venus) (human) (UniProt O95069). The test is described as follows: split reporter; BiFC (split Venus, VN and VC) in COS-7 cells, which lack detectable endogenous POPDC proteins; plate reader, normalised to DAPI.
The target in test [4] is T1, POPDC1-VN and POPDC1-VC (mouse POPDC1 fused to a half of Venus) (mouse) (UniProt Q9ES83).
T1 sequence: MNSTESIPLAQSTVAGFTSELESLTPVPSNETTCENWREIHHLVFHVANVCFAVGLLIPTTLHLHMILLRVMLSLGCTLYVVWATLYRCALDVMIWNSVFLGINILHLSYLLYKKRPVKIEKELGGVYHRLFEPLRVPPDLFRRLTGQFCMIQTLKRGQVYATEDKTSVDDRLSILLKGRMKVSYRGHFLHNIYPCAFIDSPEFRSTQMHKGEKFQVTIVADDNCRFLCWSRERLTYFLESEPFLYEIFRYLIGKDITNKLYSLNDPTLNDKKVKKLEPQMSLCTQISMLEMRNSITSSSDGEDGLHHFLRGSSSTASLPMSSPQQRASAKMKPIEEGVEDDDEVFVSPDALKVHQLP
The test is described as follows: split reporter; BiFC (split Venus, VN and VC) in HEK293 cells, which express endogenous POPDC1 and POPDC2; plate reader and live-cell imaging; with or without ISO (10 μM, 10 min, 37°C; dose-response).

Test [5] addresses VN-TREK-1c and VC-TREK-1c (human TREK-1c fused to a half of Venus) (human) (UniProt O95069). Described as above.

In the case of AKAP79 (from UniProt P24588 1-427), the binding entry in test [1] is on record as “no binding”.
Turning to “GFP-tagged epidermal growth factor receptor (EGFR) (from UniProt P00533 25-1210)”, the binding entry in test [2] is recorded as “no binding”.
Consider “VN-TREK-1c and VC-TREK-1c (human TREK-1c fused to a half of Venus) (from UniProt O95069-3 1-422)”, for which the binding result in test [3], in test [4] and in test [5] was “binds” in each case.
Regarding “YFP-tagged TREK-1 (from UniProt O95069 1-426)”, the binding entry in test [2] was “binds”.
